Test results: the supplement of paper PMC10369915
Some of the results follow. No stated cut-off is given here; in the data, active = 3.2 or more and inactive = the rest. Most of these values are background signal.

B1: ERBB3_Y1197 (peptide)
chain: DEDEEYEYMNR
B2: F12_Y53 (peptide)
chain: HFPFQYHRQLY
B3: ERBB3_Y1132 (peptide)
chain: RGDSAYHSQRH
B4: ERBB3_Y1276_G1271S (peptide)
chain: SPGGDYAAMGA
B5: ETHE1_Y38 (peptide)
chain: SCTFTYLLGDR
B6: F12_Y53_Y53C (peptide)
chain: HFPFQCHRQLY
B7: EXO1_Y284 (peptide)
chain: NNTFLYQLVFD
B8: F10_Y384 (peptide)
chain: MLEVPYVDRNS
B9: ETNPPL_Y189 (peptide)
chain: DSASAYADEVK
B10: ERBB4_Y1056_Y1056F (peptide)
chain: SPPPAFTPMSG
B11: F11_Y608_Y608H (peptide)
chain: ERPGVHTNVVE
B12: F10_Y384_V382A (peptide)
chain: MLEAPYVDRNS
B13: ERCC4_Y577 (peptide)
chain: EVEPRYVVLYD
B14: ESD_Y262 (peptide)
chain: GYDHSYYFIAT
B15: ESD_Y262_G257D_YF (peptide)
chain: DFDHSYFFIAT
B16: F11_Y521 (peptide)
chain: VTGWGYRKLRD
B17: ESD_Y262_YF (peptide)
chain: GFDHSYFFIAT
B18: ESD_Y258_G257D (peptide)
chain: RLQEDYDHSYY
B19: ERN2_Y860_H858Y_YF (peptide)
chain: NKKFHYRELPV
B20: EZR_Y499 (peptide)
chain: AEPTGYSAELS
B21: ERBB2IP_Y977_I979M_YF (peptide)
chain: FGPPQYNMQFS
B22: ERBB3_Y1199 (peptide)
chain: DEEYEYMNRRR
B23: F11_Y608 (peptide)
chain: ERPGVYTNVVE
B24: EZH2_Y641_Y641F (peptide)
chain: EFISEFCGEII
B25: ETV6_Y402 (peptide)
chain: ALRHYYKLNII
B26: ERCC4_Y581 (peptide)
chain: RYVVLYDAELT
B27: EREG_Y144_R147Q_YF (peptide)
chain: FFCRWYRNQKS
B28: F2_Y434 (peptide)
chain: HSRTRYERNIE
B29: ESD_Y258_G257D_YF (peptide)
chain: RLQEDYDHSFF
B30: ETFDH_Y172 (peptide)
chain: NNHGNYIVRLG
B31: ERBIN_Y1107 (peptide)
chain: GDYLSYREFHS
B32: ETV6_Y401_R399C_YF (peptide)
chain: RALCHYFKLNI
B33: ERBB3_Y1199_YF (peptide)
chain: DEEFEYMNRRR
B34: EXPH5_Y782_D777N (peptide)
chain: NTSKMYIPHTD
B35: ETV6_Y402_R399C (peptide)
chain: ALCHYYKLNII
B36: EXO1_Y284_N279S (peptide)
chain: SNTFLYQLVFD
B37: ERBIN_Y1107_S1112L (peptide)
chain: GDYLSYREFHL

What was measured:
Test in all cases: enrichment score (SH2-bound / input frequency) (ratio); bacterial display of known human phosphotyrosine sites (pTyr-Var adds point mutants) read by sequencing; higher = stronger binding; tyrosines were phosphorylated by kinases first
Settings in all cases: peptide library: pTyr-Var
SHP2 C-SH2 domain E139D = molecular target: SHP2 C-SH2 domain E139D
[1] = molecular target: SHP2 C-SH2 domain wild-type
SHP2 N-SH2 domain L43F = molecular target: SHP2 N-SH2 domain L43F
SHP2 N-SH2 domain T42A = molecular target: SHP2 N-SH2 domain T42A
SHP2 N-SH2 domain T52S = molecular target: SHP2 N-SH2 domain T52S
[2] = molecular target: SHP2 N-SH2 domain wild-type
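Further: displayed peptides selected on beads carrying the immobilized SH2 domain, with library peptides lacking any tyrosine serving as negative controls.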

Binder | enrichment score (SHP2 C-SH2 domain E139D) | enrichment score [1] | enrichment score (SHP2 N-SH2 domain L43F) | enrichment score (SHP2 N-SH2 domain T42A) | enrichment score (SHP2 N-SH2 domain T52S) | enrichment score [2]
B1 | inactive: 0.417 | inactive: 0.453 | inactive: 0.364 | inactive: 0.475 | inactive: 0.378 | inactive: 0.657
B2 | active: 3.74 | inactive: 3.12 | active: 3.78 | active: 3.47 | active: 3.24 | active: 3.25
B3 | inactive: 0.545 | inactive: 0.522 | inactive: 0.646 | inactive: 0.462 | inactive: 0.483 | inactive: 0.668
B4 | inactive: 0.451 | inactive: 0.437 | inactive: 0.47 | inactive: 0.453 | inactive: 0.512 | inactive: 0.624
B5 | inactive: 0.774 | inactive: 0.724 | inactive: 0.732 | inactive: 0.573 | inactive: 0.684 | inactive: 0.889
B6 | inactive: 2.16 | inactive: 1.91 | inactive: 1.83 | inactive: 1.55 | inactive: 1.97 | inactive: 1.98
B7 | inactive: 1.78 | inactive: 1.68 | inactive: 1.76 | inactive: 1.73 | inactive: 1.68 | inactive: 1.7
B8 | inactive: 0.752 | inactive: 1 | inactive: 0.863 | inactive: 0.695 | inactive: 0.847 | inactive: 1.16
B9 | inactive: 0.44 | inactive: 0.3 | inactive: 0.504 | inactive: 0.396 | inactive: 0.376 | inactive: 0.334
B10 | inactive: 0.666 | inactive: 0.483 | inactive: 0.587 | inactive: 0.558 | inactive: 0.654 | inactive: 0.594
B11 | inactive: 0.752 | inactive: 0.852 | inactive: 0.847 | inactive: 0.551 | inactive: 0.781 | inactive: 1.05
B12 | inactive: 0.928 | inactive: 0.717 | inactive: 0.958 | inactive: 0.701 | inactive: 0.847 | inactive: 0.865
B13 | inactive: 0.742 | inactive: 1.33 | inactive: 2.08 | active: 3.84 | inactive: 2.18 | inactive: 1.16
B14 | inactive: 0.949 | inactive: 0.645 | inactive: 0.853 | inactive: 0.964 | inactive: 0.642 | inactive: 0.92
B15 | inactive: 0.703 | inactive: 0.653 | inactive: 0.691 | inactive: 0.609 | inactive: 0.639 | inactive: 0.76
B16 | inactive: 0.266 | inactive: 0.286 | inactive: 0.281 | inactive: 0.397 | inactive: 0.374 | inactive: 0.527
B17 | inactive: 0.622 | inactive: 0.645 | inactive: 0.571 | inactive: 0.6 | inactive: 0.739 | inactive: 0.544
B18 | inactive: 0.758 | inactive: 0.65 | inactive: 0.692 | inactive: 0.836 | inactive: 0.649 | inactive: 1.01
B19 | inactive: 1.17 | inactive: 1.11 | inactive: 1.01 | inactive: 1.22 | inactive: 1.29 | inactive: 1.34

Binder | enrichment score (SHP2 C-SH2 domain E139D) | enrichment score [1] | enrichment score (SHP2 N-SH2 domain L43F) | enrichment score (SHP2 N-SH2 domain T42A) | enrichment score (SHP2 N-SH2 domain T52S) | enrichment score [2]
B20 | inactive: 0.544 | inactive: 0.584 | inactive: 0.681 | inactive: 0.505 | inactive: 0.594 | inactive: 0.577
B21 | inactive: 1.16 | inactive: 1.05 | inactive: 1.26 | inactive: 1.12 | inactive: 1.07 | inactive: 0.916
B22 | inactive: 0.318 | inactive: 0.515 | inactive: 0.459 | inactive: 0.592 | inactive: 0.355 | inactive: 0.403
B23 | inactive: 0.876 | inactive: 0.983 | inactive: 0.891 | inactive: 0.891 | inactive: 0.874 | inactive: 0.919
B24 | inactive: 0.848 | inactive: 1.03 | inactive: 0.995 | inactive: 1 | inactive: 1.3 | inactive: 0.826
B25 | inactive: 3.04 | inactive: 3.1 | inactive: 2.75 | inactive: 2.55 | inactive: 3.07 | active: 3.21
B26 | inactive: 1.74 | active: 3.4 | active: 5.51 | active: 8.9 | active: 7.21 | inactive: 2.59
B27 | inactive: 0.218 | inactive: 0.293 | inactive: 0.296 | inactive: 0.301 | inactive: 0.23 | inactive: 0.325
B28 | inactive: 0.821 | inactive: 0.488 | inactive: 0.504 | inactive: 0.473 | inactive: 0.68 | inactive: 0.772
B29 | inactive: 0.72 | inactive: 0.708 | inactive: 0.689 | inactive: 0.62 | inactive: 0.379 | inactive: 0.714
B30 | inactive: 1.04 | inactive: 1.12 | inactive: 1.02 | inactive: 0.689 | inactive: 0.951 | inactive: 0.803
B31 | inactive: 1.19 | inactive: 1.14 | inactive: 0.95 | inactive: 0.834 | inactive: 0.947 | inactive: 0.711
B32 | active: 3.27 | inactive: 3.09 | active: 3.39 | inactive: 2.53 | inactive: 2.81 | inactive: 2.96
B33 | inactive: 0.478 | inactive: 0.413 | inactive: 0.331 | inactive: 0.383 | inactive: 0.403 | inactive: 0.409
B34 | inactive: 0.775 | inactive: 0.636 | inactive: 0.746 | inactive: 0.795 | inactive: 0.772 | inactive: 0.723
B35 | inactive: 3.05 | inactive: 3.11 | inactive: 2.85 | inactive: 2.25 | inactive: 2.31 | inactive: 2.93
B36 | inactive: 1.7 | inactive: 2.32 | inactive: 1.61 | inactive: 1.32 | inactive: 1.69 | inactive: 2.27
B37 | inactive: 1.33 | inactive: 1.14 | inactive: 1.54 | inactive: 0.955 | inactive: 1.34 | inactive: 0.998
